In all, about 110,000 compounds went through this assay and about 230 (0.21%) showed an effect of 50% or more. Some of the results follow.
What follows are compounds tested against DPAP1 (Plasmodium falciparum, UniProt Q8IIJ9) (assay: primary screen, percent inhibition; read by cleavage of a fluorogenic dipeptide substrate; higher = more effect of the substance).
DPAP1, sequence (Q8IIJ9 whole entry, looked up): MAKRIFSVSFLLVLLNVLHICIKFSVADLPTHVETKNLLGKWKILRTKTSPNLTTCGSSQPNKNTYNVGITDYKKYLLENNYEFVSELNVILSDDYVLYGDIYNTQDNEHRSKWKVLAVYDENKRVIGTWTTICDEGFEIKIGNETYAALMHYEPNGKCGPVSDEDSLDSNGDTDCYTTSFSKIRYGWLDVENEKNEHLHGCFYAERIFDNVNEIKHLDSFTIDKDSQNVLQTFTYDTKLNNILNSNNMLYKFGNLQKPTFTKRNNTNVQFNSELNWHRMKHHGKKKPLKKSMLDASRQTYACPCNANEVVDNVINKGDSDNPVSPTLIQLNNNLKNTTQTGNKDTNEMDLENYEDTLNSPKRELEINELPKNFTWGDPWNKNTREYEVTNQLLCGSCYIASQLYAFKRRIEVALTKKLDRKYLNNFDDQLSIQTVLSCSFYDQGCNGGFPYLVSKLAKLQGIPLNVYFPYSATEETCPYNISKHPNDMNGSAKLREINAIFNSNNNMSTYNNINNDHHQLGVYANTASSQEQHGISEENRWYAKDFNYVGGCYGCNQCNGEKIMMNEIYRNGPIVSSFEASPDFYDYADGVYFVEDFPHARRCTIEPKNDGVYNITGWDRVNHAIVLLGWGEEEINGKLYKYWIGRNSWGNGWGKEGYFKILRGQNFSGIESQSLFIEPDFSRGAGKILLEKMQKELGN
Design: species or system P. falciparum D10 trophozoite lysates; single well
With COc1ccc(Cl)cc1N(CC(=O)NCc1ccccc1Cl)S(C)(=O)=O the “% Inhibition @ 10 uM” value was -3.29%.
In the case of COc1cccc(C(=O)Nc2cc(Cl)ccc2Cl)c1, the “% Inhibition @ 10 uM” value is reported as -6.78%.
CCn1c(O)cc(=O)nc1SCc1ccccc1 was tested, and the “% Inhibition @ 10 uM” value was 3.48%.
With CCOP(=O)(O)CCNCc1ccccc1 the “% Inhibition @ 10 uM” value was 1.21%.
In the case of COc1ccc(Cc2nn3c(-c4ccccc4)nnc3s2)cc1, the “% Inhibition @ 10 uM” value is reported as 6.49%.
With COCCCNC(=O)C1CCCN(c2nnc(C)c3c(C)n(-c4ccccc4)nc23)C1 (stereo not drawn) the “% Inhibition @ 10 uM” value was -4.74%.
In the case of C1=C(c2cccc3ccccc23)N2CCN=C2S1, the “% Inhibition @ 10 uM” value is reported as 3.06%.
In the case of COc1cc(N2CCN(c3ccncc3S(=O)(=O)N3CCCCC3)CC2)cc(OC)c1OC, the “% Inhibition @ 10 uM” value is reported as -4.07%.
Cc1ccc(C(=O)Nc2ccc(-c3cn4cccnc4n3)cc2)cc1 was tested, and the “% Inhibition @ 10 uM” value was 1.83%.
For Cc1nnc(N2CCN(C(=O)NCc3ccc(F)cc3)CC2)c2nn(-c3ccccc3)c(C)c12, the “% Inhibition @ 10 uM” value was -2.66%.
For C=CCOc1c(CNc2ccc3[nH]c(O)nc3c2)cccc1OC, the “% Inhibition @ 10 uM” value was -5.15%.
Cc1ccc(-c2cc(C(=O)N3CCCC3)[nH]n2)cc1C was tested, and the “% Inhibition @ 10 uM” value was -1.26%.
For COc1cc(/C=C2\C(=O)ON=C2C)ccc1O, the “% Inhibition @ 10 uM” value was 2.09%.
For O=c1c2c3c(sc2nc2c4ccccc4c(Cl)nn12)CCCC3, the “% Inhibition @ 10 uM” value was 3.79%.
With FC(F)(F)c1nc(Nc2cc(Cl)ccc2Cl)sc1-c1ccccc1 the “% Inhibition @ 10 uM” value was 3.25%.
For O=C(Nc1ccc2c(c1)OCCO2)C1CCCO1 (stereo not drawn), the “% Inhibition @ 10 uM” value was -2.43%.
With Cc1ccc(S(=O)(=O)CCc2nnc(NC(=O)c3ccc(Br)cc3)s2)cc1C the “% Inhibition @ 10 uM” value was -0.467%.
With O=C(/C=C/N1CCOCC1)c1ccc(-c2ccccc2)cc1 the “% Inhibition @ 10 uM” value was 3.65%.
For COC(=O)c1ccc(Cn2nnc(-c3ccc(OCc4ccccc4F)cc3)n2)cc1, the “% Inhibition @ 10 uM” value was -2.5%.
In the case of CCc1c(C(=O)N2CCC(Cc3ccccc3)CC2)[nH]c(C)c1C(C)=O, the “% Inhibition @ 10 uM” value is reported as -1.51%.
For CCc1ccc(C(=S)Nc2ccccc2)nc1, the “% Inhibition @ 10 uM” value was 1.8%.
In the case of COc1ccc(S(=O)(=O)NCc2ccc(C(=O)NCCN(C)Cc3ccccc3)cc2)cc1, the “% Inhibition @ 10 uM” value is reported as 0.208%.
With CCN(CC)c1ccc(CN2CCN(c3ccccc3F)CC2)cc1 the “% Inhibition @ 10 uM” value was -5.94%.
For Cc1ccc(C(=O)Nc2sc3c(c2C(=O)N2CCOCC2)CCCCC3)cc1, the “% Inhibition @ 10 uM” value was -2.83%.
FC(F)(F)c1cccc(-c2nnn3c2nc(NCc2ccccc2)c2ccccc23)c1 was tested, and the “% Inhibition @ 10 uM” value was -2.92%.
For CC(C)CCNc1cc(-c2ccccc2)nc2nncn12, the “% Inhibition @ 10 uM” value was -0.808%.
For COc1ccccc1C(=O)Nc1ccc(F)c(F)c1, the “% Inhibition @ 10 uM” value was 13.3%.
For COc1ccc(CCNC(=O)c2cc(-c3ccc(O)cc3)on2)cc1OC, the “% Inhibition @ 10 uM” value was -4.07%.
CO/C(O)=C1\C(C)=NC2=C(C(=O)CC(c3cccs3)C2)C1c1ccsc1 (stereo not drawn) was tested, and the “% Inhibition @ 10 uM” value was 3.86%.
For COc1ccc(C=O)cc1Br, the “% Inhibition @ 10 uM” value was -1.68%.
For COc1cc(/C=c2/sc3nc(=O)c(Cc4ccc(F)cc4)nn3c2=O)cc(OC)c1OC, the “% Inhibition @ 10 uM” value was 2.9%.
With CCOc1ccccc1NC(=O)C1=C(C)NC(=O)NC1c1ccccc1 (stereo not drawn) the “% Inhibition @ 10 uM” value was -5.69%.
In the case of Cc1cccn2c(=O)c3cc(C(=O)NC4CCS(=O)(=O)C4)n(C)c3nc12 (stereo not drawn), the “% Inhibition @ 10 uM” value is reported as 5.31%.
In the case of CC(=O)c1ccc(N2CCN(C3CCN(Cc4ccccc4)CC3)CC2)cc1, the “% Inhibition @ 10 uM” value is reported as 3.18%.
For COc1ccc2[nH]c3c(OC)ncnc3c2c1, the “% Inhibition @ 10 uM” value was 1.54%.
With CCCc1c(C)nc2ccc(OCCC(C)C)cc2c1Cl the “% Inhibition @ 10 uM” value was -1.99%.
N#CCNC(=O)[C@@H](CS(=O)(=O)CC1c2ccccc2-c2ccccc21)NC(=O)OCc1ccccc1 was tested, and the “% Inhibition @ 10 uM” value was 4.54%.
For N#Cc1nc(/C=C/c2ccc(F)cc2)oc1N1CCOCC1, the “% Inhibition @ 10 uM” value was 0.895%.
CC(NC(=O)CCCc1nnc2n(C)c(=O)c3sccc3n12)c1ccc2c(c1)OCCO2 (stereo not drawn) was tested, and the “% Inhibition @ 10 uM” value was -1.31%.
COc1ccc(C(=O)NC(=S)N2CCCCCC2)cc1 was tested, and the “% Inhibition @ 10 uM” value was -5.11%.
For CCc1c(C)sc(N)c1C(=O)OC, the “% Inhibition @ 10 uM” value was 1.6%.
For O=C(Nc1ccc(Br)cc1)c1cc2ccccc2oc1=O, the “% Inhibition @ 10 uM” value was -0.771%.
In the case of COc1ccc(OC)c(NS(=O)(=O)c2ccc(NC(=O)c3ccc(Cl)cc3Cl)cc2)c1, the “% Inhibition @ 10 uM” value is reported as -2.38%.
For CCOc1cc(C2NC(S)=NC(C)=C2C(=O)Nc2ccccn2)ccc1OCc1ccccc1 (stereo not drawn), the “% Inhibition @ 10 uM” value was 3.06%.
With Cc1ccc(-c2cc(NC(=O)c3ccccc3F)on2)cc1 the “% Inhibition @ 10 uM” value was -3.24%.
COc1cccc(C2=NOC(C(=O)NC3CCCCC3)C2)c1OC (stereo not drawn) was tested, and the “% Inhibition @ 10 uM” value was -2.16%.
With Cc1ccc(NC(=O)CC[C@H](NC(=O)c2ccc(Br)cc2)C(=O)NCC#N)cc1 the “% Inhibition @ 10 uM” value was 3.19%.
CCOC(=O)c1ccc(-c2ccc(C=C3C(=O)N(C)C(=O)N(C)C3=O)o2)cc1 was tested, and the “% Inhibition @ 10 uM” value was 2.7%.
In the case of CCc1c(C)sc(NC(=O)Cc2ccc(F)cc2)c1C(N)=O, the “% Inhibition @ 10 uM” value is reported as 11.4%.
With c1cc2c(cc1CNCc1ccc3c(c1)OCO3)OCO2 the “% Inhibition @ 10 uM” value was 0.331%.
COc1cc(C)nc(-c2ccc([N+](=O)[O-])cc2)n1 was tested, and the “% Inhibition @ 10 uM” value was -1.99%.

From paper PMC6919601, “Identification of Plasmodium dipeptidyl aminopeptidase allosteric inhibitors by high throughput screening” (PLoS ONE, 2019)
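Note: 30 min substrate incubation versus DMSO and 10 µM JCP410 controls.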
